Out of some 43,000 compounds screened, about 200 (0.47%) were called active. About 12% were inconclusive and are not listed. The call rests on the fitted dose curve; in most records, active means well fitted cell-killing curve with a large enough effect; inconclusive means small, poorly fitted or top-dose-only effect, or effect the other way; inactive means flat fitted curve, though single readings scatter. Some of the results follow.
assay: Cell viability qHTS assay in S16 Pmp22-F2sN cells; details: S16 Pmp22-F2sN Schwann cells (luciferase reporters placed in the Pmp22 gene) viability, CellTiter-Glo, 24 h; series mostly up to 57.5 µM; activity change, negative = cytotoxicity: at the top concentration; further: nearly all actives have a fitted effect of over 65% in size
Summary of the method: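 Rat S16 Schwann reporter line, 24 h treatment with library compounds delivered at 23 nL per well. Cell viability by CellTiter-Glo luminescence.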
On the % scale 0 is the no-effect control and ±100 the full control effect.

Row | SMILES | activity change, negative = cytotoxicity
1 | CCn1ccc2cc(S(=O)(=O)N3CCCN(C(=O)Nc4cccc(Cl)c4)CC3)ccc21 | inactive: 0.876%
2 | Cc1ccc(NC(=O)NCCc2c(C)nn(C)c2C)cc1Cl | inactive: -5.42%
3 | CCc1ccc(NC(=O)c2sc(-n3nc(C)c(Cc4ccc(OC)cc4)c3C)nc2C)cc1 | inactive: -7.37%
4 | COc1cccc(NC(=O)CN2C(=O)c3cccnc3Oc3ccc(Cl)cc32)c1 | inactive: -0.889%
5 | COc1ccc(N(C)C(=O)CCn2cnc3onc(-c4ccc(F)cc4)c3c2=O)c(OC)c1 | inactive: -9.8%
6 | COC(=O)c1c(-c2cccs2)csc1NC(=O)COc1ccc(C(C)(C)C)cc1 | inactive: 0.269%
7 | CCOc1ccccc1C1C(C(=O)N2CCCCC2)=C(C)Nc2nc3ccccc3n21 (stereo not given) | inactive: 6.64%
8 | CCOc1ccccc1NC(=O)c1nn(-c2ccc(C)cc2)c(=O)n(C)c1=O | inactive: -21.6%
9 | Cc1ccc(C(=O)Nc2ccc(-c3cn4cccnc4n3)cc2)cc1C | inactive: 5.73%
10 | COc1ccccc1CNc1ccc(-c2nc(-c3cccnc3)no2)cc1[N+](=O)[O-] | inactive: 28.2%
11 | Cc1cccc(OCC(=O)N(Cc2cccs2)c2ccc(Cl)cc2)c1C | inactive: -13.7%
12 | CCCCN(CCCC)C(=O)c1cc2c(=O)n3cccc(C)c3nc2s1 | inactive: -3.32%
13 | COc1ccc(C2CC(=O)N(CC(=O)Nc3cc(C)ccc3C)c3ccccc3S2)cc1 (stereo not given) | inactive: 7.79%
14 | CCOC(=O)c1cccc(NC(=O)[C@@H](c2ccccc2)N2Cc3ccccc3C2=O)c1 | inactive: 0.71%
15 | Cc1c(-c2nsc(NC(=O)c3ccccc3)n2)nnn1-c1ccc(C(F)(F)F)c(Cl)c1 | inactive: 19.5%
16 | O=C1c2oc3ccccc3c(=O)c2C(c2ccccc2)N1Cc1ccc2c(c1)OCO2 (stereo not given) | inactive: 0.876%
17 | CCN1C(=O)c2ccccc2Sc2ccc(C(=O)NCCCN(CC(C)C)CC(C)C)cc21 | inactive: -26.8%
18 | Cc1cc(C)c(NC(=O)Cc2csc(C)n2)c(Cl)c1 | inactive: 1.14%
19 | CCC(=O)N1c2ccccc2CC1C(=O)NCc1ccc(OC(C)C)cc1 (stereo not given) | inactive: 9.71%
20 | CCN(CCCNC(=O)Cn1ncc2c([nH]c3ccc(C)cc32)c1=O)c1cccc(C)c1 | inactive: 18.6%
21 | CCc1ccccc1NC(=O)c1ccc2c(c1)N(Cc1cccc(Cl)c1)C(=O)c1ccccc1S2(=O)=O | inactive: 1.77%
22 | CCOc1ccc(-c2nc(SCC(=O)Nc3ccc4c(c3)OCO4)c(-c3ccc(F)cc3)[nH]2)cc1 | inactive: 1.87%
23 | COc1ccc(C2CC(=O)Nc3c2c(C)nn3-c2nncc(-c3ccc(C)cc3)n2)c(OC)c1OC (stereo not given) | inactive: -8.28%
24 | Cc1cccc(CCNC(=O)c2sc3nc4n(c(=O)c3c2C)CCCC4)c1 | inactive: -2.43%

Row | SMILES | activity change, negative = cytotoxicity
25 | O=C1CSC2(C(=O)N(Cc3ccccc3F)c3ccccc32)N1c1ccc(F)cc1 (stereo not given) | inactive: 16.1%
26 | COc1cc(NC(=O)c2ccc(C)cc2)ccc1NC(=O)c1cc2ccccc2o1 | inactive: -1.21%
27 | O=C(NCCc1ccccc1)c1ccc(CS(=O)(=O)c2ccc(Br)cc2)o1 | inactive: 12%
28 | COc1ccc(-n2ccnc2SCC(=O)Nc2ccc(F)cc2F)cc1 | inactive: 1.9%
29 | Cc1cc2nn(-c3ccccc3)nc2cc1NC(=O)c1cccc2c(Cl)cccc12 | inactive: 4.39%
30 | CCSc1nnc2n(-c3cccc(C)c3)c(=O)c3c4c(sc3n12)CCCC4 | inactive: -7.89%
31 | COc1ccc(CCC(=O)N2CCc3c([nH]c4ccccc34)C2c2ccc(F)cc2)cc1 (stereo not given) | inactive: -6.01%
32 | Cc1ccc2onc(CNC(=O)N3CCN(c4cccc(C)c4C)CC3)c2c1 | inactive: -11.4%
33 | Cc1ccc(NC(=O)Nc2ccc3c(c2)N(C)C(=O)c2ccccc2S3)c(C)c1 | inactive: -29.9%
34 | CCOC(=O)c1c(C)[nH]c(C)c1S(=O)(=O)NCC(=O)Nc1cc(C)ccc1OC | inactive: -1.88%
35 | O=C(NCCc1csc2nc(-c3ccccc3F)nn12)c1ccco1 | inactive: 10.3%
36 | O=C(NC(=O)c1ccc(F)cc1)Nc1ccc(-c2cc(C(F)(F)F)nn2-c2ccccc2)cc1 | inactive: -2.41%
37 | Cc1oc2c(c(C)cc3oc(=O)c(CC(=O)NCCc4ccccc4)c(C)c32)c1C | inactive: -2.63%
38 | CN1C(C(=O)c2ccccc2)=C(OC(=O)c2ccc(Br)cc2)c2ccccc2S1(=O)=O | inactive: -13.4%
39 | Cc1ccc(-c2c(CN3CCN(c4cccc(C(F)(F)F)c4)CC3)csc2C)cc1 | inactive: 20.9%
40 | COc1cccc(C2C=C(c3ccc(C)c(C)c3)Nc3nnnn32)c1OC (stereo not given) | inactive: -26.8%
41 | COc1ccc(N2CCN(S(=O)(=O)CCNC(=O)C(c3ccccc3)c3ccccc3)CC2)cc1 | inactive: -4.43%
42 | CCN1CCN(CCCNC(=O)c2cnn(-c3ccccc3)c2C2CCN(C(=O)OC(C)(C)C)CC2)CC1 | inactive: -1.1%
43 | CCOC(=O)c1ccc(Nc2nc3ccccc3nc2NS(=O)(=O)c2ccc(Cl)cc2)cc1 | inactive: 14.7%
44 | Cc1cccc(NC(=O)c2c(C)oc3ncn(CC(C)C)c(=O)c23)n1 | inactive: -22.2%
45 | CC(=O)N1CCc2cc(S(=O)(=O)CCC(=O)N3CCN(c4cccc(C)c4C)CC3)ccc21 | inactive: 5.71%
46 | Cc1sc2ncn(CC(=O)N(C)c3ccc(Br)cc3)c(=O)c2c1S(=O)(=O)N1CCC(C)CC1 | inactive: 9.84%
47 | Cc1nc2c(C(=O)NCc3ccccc3)c[nH]n2c(=O)c1Cc1ccccc1Cl | inactive: -13.1%
48 | CCOc1ccc(-c2nnc(Nc3ccc(S(N)(=O)=O)cc3)c3ccccc23)cc1 | inactive: 8.16%

Row | SMILES | activity change, negative = cytotoxicity
49 | Cc1cc(C)c(NC(=O)CSc2nc(=O)[nH]c3c2CCCC3)c(C)c1 | inactive: -14.8%
50 | CC(C)(C)c1ccc(OCC(=O)N2CCC(c3nc4ccccc4s3)CC2)cc1 | inactive: 8.55%
51 | CCCOC1(C(F)(F)F)NC(=O)N(c2ccc(Cl)cc2)C1=O (stereo not given) | inactive: 0.764%
52 | O=C(NCCc1ccccc1)c1cc(-c2ccc(Cl)cc2)on1 | inactive: -1.13%
53 | COc1ccc(NC(=O)c2noc3c2CCCC3)cc1Cl | inactive: 0.212%
54 | COC(=O)c1c(NC(=O)CCCOc2cccc(C)c2)sc2c1C(C(=O)OC)CC2 (stereo not given) | inactive: 1.25%
55 | CCN(CC)C(=O)Cn1c(=O)n(Cc2ccc(C(=O)NCCc3ccc(OC)c(OC)c3)cc2)c(=O)c2ccccc21 | inactive: 14.6%
56 | CCOC(=O)C1=C(C)N=C2SCCC(=O)N2C1c1ccc(OCc2ccccc2)cc1 (stereo not given) | inactive: 5.12%
57 | Cc1ccc(-n2ncc(C(=O)NCc3ccco3)c2C2CCN(C(=O)OC(C)(C)C)CC2)c(C)c1 | inactive: -5.86%
58 | CC(=O)c1ccc(N2C(=O)N(CC(=O)c3ccc(F)cc3)c3ccccc3S2(=O)=O)cc1 | inactive: 11.9%
59 | Cc1ccc(-n2ncc3c(NC4CCCCCC4)ncnc32)cc1Cl | inactive: -5.67%
60 | Cc1cc(C)cc(NS(=O)(=O)c2cc3c(cc2C)NC(=O)CO3)c1 | inactive: -18%
61 | O=C(Nc1ccc(OC(F)(F)F)cc1)c1cc2ccccn2n1 | inactive: -2.25%
62 | O=c1nc2n(-c3ccccc3F)c3ccccc3cc-2c(=O)[nH]1 | inactive: -7.86%
63 | COc1cc(OC)c(Nc2nc3ccc(C(=O)c4ccccc4)cc3n3c(C)nnc23)cc1Cl | inactive: 1.17%
64 | CCCCn1cc2c(c1-c1ccc(Cl)cc1)c(=O)n(C)c(=O)n2C | inactive: -1.98%
65 | CCCN(C(=O)Cn1cnc2onc(-c3ccc(F)cc3)c2c1=O)c1cccc(Cl)c1 | inactive: 0.41%
66 | CCOc1ccc(CCNS(=O)(=O)c2cc(Br)cc3c2N(C(C)=O)CC3)cc1OCC | inactive: 15%
67 | Cc1cc(C)n(-c2nc3ccccc3nc2Nc2cccc(C)c2C)n1 | inactive: 0.359%
68 | CCC(Sc1nc2ccccc2c(=O)n1CCc1ccc(OC)c(OC)c1)C(=O)N(CC)CC (stereo not given) | inactive: -14.5%
69 | CCOC(=O)c1c(NC(=O)c2ccc(S(=O)(=O)N(CC(C)C)CC(C)C)cc2)sc2c1CCN(C(=O)OCC)C2 | inactive: 0.339%
70 | CCC(=O)N(CCC(c1ccccc1)c1ccc2c(c1)OCO2)Cc1ccc(OC(C)C)cc1 (stereo not given) | inactive: -28.6%
71 | COc1ccc(NC(=O)CSc2nnc(-c3nonc3NC(C)=O)n2-c2ccccc2)cc1 | inactive: 9.86%
72 | COc1ccc(Cl)cc1NC(=O)c1sc2nc3n(c(=O)c2c1C)CCC3 | inactive: 4.35%

Row | SMILES | activity change, negative = cytotoxicity
73 | CCN(C(=O)c1cnc2ccc(C)cn2c1=O)c1ccccc1 | inactive: 8.38%
74 | COc1ccc(Cl)cc1NC(=O)c1nn(-c2ccc(C)cc2)c(=O)n(C)c1=O | inactive: 2.02%
75 | Cc1cccc(CNC(=O)CS(=O)(=O)c2cccc3nsnc23)c1 | inactive: 0.747%
76 | COc1cc(NC(=O)Cn2cnc(S(=O)(=O)N3CCCC3)c2)cc(OC)c1OC | inactive: 9.13%
77 | Clc1ccc(-c2noc3ncnc(NCCc4ccccc4)c23)cc1 | inactive: -1.99%
78 | CCc1ccc(NC(=O)C2CCN(c3nn4c(=O)cc(C)nc4s3)CC2)cc1 | inactive: 2.62%
79 | CCc1ccc(CNC(=O)C2CCN(c3nn4cc(-c5ccc(F)cc5)nc4s3)CC2)cc1 | inactive: 2.4%
80 | CC(=O)CSc1nnc2[nH]c(=O)cc(N)n12 | inactive: 6.19%
81 | CCOc1cc2[nH]c(=O)n(Cc3ccc(C(=O)N4CCN(c5cccc(Cl)c5)CC4)cc3)c(=O)c2cc1OCC | inactive: -3.3%
82 | Cn1nc(C(=O)Nc2ccc(F)c(Cl)c2)c2c1-c1ccccc1S(=O)(=O)C2 | inactive: -10.7%
83 | CCOC(=O)c1c(C)c(-c2ccccc2)n(CC(=O)NC2CCCCC2)c1C | inactive: -6.77%
84 | O=C(Cn1c(=O)nc(-c2ccccc2)c2cc(Cl)ccc21)N1CCN(c2ccc(F)cc2)CC1 | inactive: 12.3%
85 | COc1ccc(C(=O)NC2(C(F)(F)F)C(=O)Nc3c2c(=O)[nH]c(=O)n3CCc2ccc(OC)c(OC)c2)cc1 (stereo not given) | inactive: 16.8%
86 | COc1cc(C2CC(=O)Oc3c2c(=O)n(C)c2ccccc32)ccc1O (stereo not given) | inactive: 3.78%
87 | Cc1ccc(NC(=O)Cn2c(=O)n(CC3CCCO3)c(=O)c3ccccc32)cc1 (stereo not given) | inactive: 15.9%
88 | Cc1cc(C)c2oc(-c3cccc(NC(=O)COc4ccc([N+](=O)[O-])cc4)c3)nc2c1 | inactive: -18.9%
89 | Cc1ccc(Cl)cc1N1CCN(C(=O)c2ccc(CS(=O)(=O)c3ccccc3C)o2)CC1 | inactive: 6.95%
90 | O=C(COc1ccccc1)Nc1ccc2nc(SCCOc3ccccc3)sc2c1 | inactive: 4.81%
91 | CCOC(=O)c1[nH]c(C)c(CCC(=O)Nc2cc(C)ccc2OC)c1C | inactive: 2.66%
92 | CCc1ccccc1NC(=O)c1cnc(N2CCCCC2)c2ccccc12 | inactive: -12.4%
93 | COc1cc(C(=O)NCC(c2cccs2)S(=O)(=O)c2cccs2)cc(OC)c1OC (stereo not given) | inactive: 13.8%
94 | CCOc1ccc(CCNC(=O)Cn2nc(CC)n3c(cc4ccccc43)c2=O)cc1 | inactive: 11%
95 | Fc1ccc(-c2noc3ncnc(NCc4ccc(Cl)cc4)c23)cc1 | inactive: -19.1%

From PubChem BioAssay AID1508642 (National Center for Advancing Translational Sciences (NCATS), 2021)
